# Measurements published in the RNAGym collection of RNA variant scans (doi:10.7554/elife.90254).
# The source gives no read counts; variants with many changes may rest on few reads.
# B1: LINE1-mini (parent)
# chain: GGCAGAGCUCAACACAGCGUGGCAAAGUGGCUGUGGCUAGACUGCC
# Variants of: B1
# Assay: self-cleavage, relative activity (ratio to wild type); higher = more cleavage; in vitro, sequencing; the parent is a self-cleaving ribozyme
row,Variant,self-cleavage
1,U20G C23G U38G,0
2,G19C C42A C45A,0.02
3,G19A A25G G35A G44C,0.06
4,C18U G19A C31U C37A C42G,0
5,U20A C23U C31U G33C,0.14
6,G19U G22U U43C C45A,0.02
7,U20C U28A G29U C31U C37U,0
8,C18U G19U C45A,2.24
9,C18U G29A C46U,1.91
10,C18U G19U A24U C42U,0.11
11,U20A G21A G30A G36A U38C,0.15
12,U20G A25G G40C,0.04
13,G19C U32A G33A C42U G44U,0.1
14,U20A U28G C31A,0.55
15,U20C G21U C45U,0.26
16,G19C G30A G35C,0.07
17,C18U U20A G27U G29U G35U,0.14
18,G19U C23A U32G U34C,0.03
19,G19C G30C A41U,0.32
20,U20A U32G U34C A39G,0.08
21,G19U A24U G29U U32C C37U,0.04
22,U20A U28C G44U,0.04
23,U20C C42A U43G,0.02
24,G19A C42G U43C,0.03

row,Variant,self-cleavage
1,G19C U28C G36C,0.05
2,G19C G21U C31A C42G,0.07
3,U20C G27U G35A,0.1
4,G19U G21C C31G,0.18
5,C18U G22C A26U,2.1
6,G19U U28A C46G,0.68
7,U20A G21U C45G,0.28
8,U20A A25U U38G,0.03
9,G19C U20A A26C G33U,0.21
10,U20A G21C G36A,0.02
11,G19A A25G A39U,1.37
12,G19C U28A U38G C42A,0.01
13,C18U G30C U38G,0.02
14,G19A A25U C31U C37U,0.03
15,C18U G22U C31U G33U,0.03
16,U20A G44A C45U,0.05
17,G19C A25U G29A G40U G44A,0.02
18,C18U G29A U32G,0.11
19,G19A A24G A41C,0.02
20,G19U U20C G36C,0.13
21,U20A G21A A24C C37A A39U,0.02
22,G19C U20A C45A,2.01
23,U20A G30A G36U A39C,0.04
24,U20G A25G G35A C37A G40A,0.06

row,Variant,self-cleavage
1,U20G A24C U38A,0.29
2,G19U A39G C42A,0.02
3,G19U A24G A39U C46G,0.05
4,G19C C31U U43C,0.02
5,U20C C37U G40U,0.06
6,C18U U32A U34G,0
7,G19A G29U G40U C42U,0.1
8,G19A U28A G35A,0.07
9,G19U U34G G40U,0.02
10,U20C G21U U32C C45A,0.58
11,G19U C23G C42A,0.02
12,G19C U20A G36A G40C,0.03
13,G19C G36A C42A,0.13
14,C18U G33U U34A G35U,0.03
15,G19C G21A C31A,0.69
16,G19U A25G G36U C37A,0.01
17,U20C G22U A24G G36U,0.05
18,U20C U28G C45G,0.03
19,U20A C23A A39U,0.2
20,U20A U38G G40C,0.06
21,U20C G21U G22C A24U G30A U38G G44U,0.01
22,G19C G33U G40C,0.03
23,G19A G21A G27A C45U C46A,1.38
24,C18U G21C A41U,0.11

row,Variant,self-cleavage
1,G19U A26C C37G,0.03
2,G19A C23A A25C G33A A41G,0.05
3,U20A C23U G35C A41U,0.12
4,C18U U28G C31G,0.07
5,G19U A26C A39U,0.01
6,G19U G27A C31U G36C,0.02
7,U20C A39U A41C,0.02
8,U20A G22A C23A C37G,0.03
9,G19A G29C G36U,0.02
10,U20C G29U G33U,0.03
11,U20A C23U U28C G30U C45U,0.86
12,G19A G22C A26U G35U A41U,0.2
13,G19C G27U U43A,0.01
14,U20A G30U C31A U38G,0.03
15,U20C G29U C31U,0.94
16,U20G C42G U43G,0.04
17,G19A C31U G33A,0.02
18,U20A G27U A39U,0.49
19,U20G A25G G35C U38A A39C G40U,0.06
20,U20G A25U U28A C45A,0.18
21,G19C A24G A41G,0.15
22,G19U G36A C45A,0.02
23,U20C G22C U38C C46G,0.05
24,C18U G21A G27A C31G,0.13

row,Variant,self-cleavage
1,U20C A26U G33U C45G,0.02
2,U20C A25C C45G C46U,0.02
3,G19C G30C U32C G33C,0.03
4,U20C C23A U32A,0.1
5,G19U A41C C46U,0.01
6,G19U U32G C45G,0.06
7,U20A G29C U32G,0.59
8,G19A G29A G44A,0.97
9,C18U G19A U20C G21A U38G G40A C46A,0.01
10,U20C A24C A25G A39C C42G,0.02
11,C18U G21A A41G,0.48
12,U20G A26U C46G,1.05
13,C18U G21A G30U,0.55
14,G19U U20G G22C,1.38
15,U20A G27A C31U,0.45
16,U20A C23U G30A G40U,0.11
17,U20C C23A G30U A39U,0.05
18,G19A A39C G44A C46U,0.08
19,G19C U34C G35A C42U,0.07
20,G19A G21U A24G U38A C45U,0.5
21,G19U U20A C42U,0.06
22,U20A G35A A41C,0.04
23,U20A G35A A41U,0.29
24,C18U G22U C31U C45U,0.12

row,Variant,self-cleavage
1,C18U C31A A41G,0.01
2,G19A U20C A26C,0.08
3,U20A G21U U38A,0.11
4,U20C G35U C45G,0
5,U20A G30C G33U G36C,0.02
6,C18U G36U C45U C46A,0.11
7,G19U A24U G29A,0.55
8,G19A A25U G40U A41C,0.62
9,G19U C23U A26C C46U,0.45
10,U20C C37A U43A,0.02
11,G19C U20C A26C G27U U28G,0.09
12,U20A G33A C37A,0.06
13,G19U G30U G35C,0.1
14,G19U C31G U34C,0.03
15,U20A C37A A41U,0.05
16,G19A C31U U34C A41U,0.03
17,G19A A24U G36C,0.07
18,G19C C23A A26C A39U,0.04
19,G19U A25C C46A,0.75
20,U20A A26G G27A U32C A41U C42A,0.01
21,C18U G29U C31A,0.09
22,G19C A25G C45U,0.19
23,C18U G33A A39G C46A,0.01
24,C18U G19U C37U,0.04

row,Variant,self-cleavage
1,G19C G21A C23A U32A G40C,0.03
2,G19A G29U U32C G33A C46G,0.05
3,U20C G27C G33A A41U,0.03
4,G19A U20A G30U,1.21
5,G19A G27C G44C,0.69
6,U20C A26G G36C C46U,0.03
7,U20C G27A U28A C37A,0.02
8,G19U G27C C46G,0.56
9,G19U G40A U43C,0.02
10,G19U U20G A26G C37U,0.08
11,U20C G33C G36C G40U,0.03
12,U20G A25U G29A C37A,0.02
13,G19C U28C G33C G36A C37A,0.06
14,G19A U32C G36A C45U,0.01
15,U20C G30A U43G,0
16,G19A C37U U38C,0.03
17,C18U U28A A39U,0.13
18,C18U U20G C42G U43G,0.14
19,U20A G30U A39G G40C,0.1
20,C18U G27U G35U C46U,0.04
21,C18U G35U C46A,0.01
22,C18U G22U G27U G33C A41G,0.03
23,C18U U34A G44U C46G,0.01
